{
  "source": "paper PMC4336329",
  "about": "(PLoS ONE, 2015)",
  "note": "The campaign covered roughly 310,000 compounds. About 14,000 (4.5%) showed an effect of 50% or more. The effect is printed as a negative number. Some of the results follow.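 Also: peak tail current of the secondary pulse compared with the same well before compound.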",
  "data": [
    {"target": "human ether-à-go-go-related gene (hERG) potassium channel (human, UniProt Q12809)", "sequence (Q12809 whole entry, looked up)": "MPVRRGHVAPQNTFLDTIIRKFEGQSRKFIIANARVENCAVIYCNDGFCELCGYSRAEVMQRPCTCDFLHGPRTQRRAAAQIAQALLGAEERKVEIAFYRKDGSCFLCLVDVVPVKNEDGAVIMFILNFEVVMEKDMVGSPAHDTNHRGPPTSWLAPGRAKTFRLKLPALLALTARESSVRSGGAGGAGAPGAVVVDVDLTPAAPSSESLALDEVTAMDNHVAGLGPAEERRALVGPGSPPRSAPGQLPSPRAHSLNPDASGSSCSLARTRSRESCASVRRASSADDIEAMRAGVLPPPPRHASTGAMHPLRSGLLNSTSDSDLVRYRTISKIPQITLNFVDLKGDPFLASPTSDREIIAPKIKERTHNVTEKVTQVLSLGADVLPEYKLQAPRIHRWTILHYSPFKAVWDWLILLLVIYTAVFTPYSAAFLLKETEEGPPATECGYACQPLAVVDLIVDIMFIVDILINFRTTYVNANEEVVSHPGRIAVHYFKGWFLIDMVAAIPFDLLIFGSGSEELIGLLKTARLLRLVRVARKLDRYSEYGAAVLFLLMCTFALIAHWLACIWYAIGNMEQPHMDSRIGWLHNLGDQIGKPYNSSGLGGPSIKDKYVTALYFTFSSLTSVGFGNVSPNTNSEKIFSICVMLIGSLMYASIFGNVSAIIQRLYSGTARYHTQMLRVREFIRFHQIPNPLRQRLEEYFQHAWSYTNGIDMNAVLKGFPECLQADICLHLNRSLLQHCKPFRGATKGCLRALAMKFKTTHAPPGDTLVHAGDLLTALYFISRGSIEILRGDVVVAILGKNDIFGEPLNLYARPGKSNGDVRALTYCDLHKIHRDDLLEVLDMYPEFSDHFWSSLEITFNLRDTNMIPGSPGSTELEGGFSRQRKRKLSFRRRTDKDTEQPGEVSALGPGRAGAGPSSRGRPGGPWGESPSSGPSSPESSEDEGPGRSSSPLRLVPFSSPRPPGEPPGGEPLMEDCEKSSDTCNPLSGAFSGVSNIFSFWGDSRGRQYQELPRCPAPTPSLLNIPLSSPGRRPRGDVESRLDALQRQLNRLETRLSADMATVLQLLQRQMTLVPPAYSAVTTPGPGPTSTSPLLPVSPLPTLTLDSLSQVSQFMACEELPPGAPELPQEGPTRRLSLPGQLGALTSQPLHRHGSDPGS", "assay": "primary screen, population patch clamp on CHO cells stably expressing hERG", "units": {"hERG current change (%, negative = inhibition) at 10uM": "%"}, "values": [
      {"compound": "C[n+]1cc(C(=O)N2CCCCC2)ccc1/C=C/c1c[nH]c2ccccc12.[I-]", "hERG current change (%, negative = inhibition) at 10uM": -3.97},
      {"compound": "CC1Cc2ccccc2N1C(=O)c1cnc2n(c1=O)CCS2", "note": "(centres unmarked)", "hERG current change (%, negative = inhibition) at 10uM": 12.1},
      {"compound": "CCOC(=O)N1C2C=C(C)[C@@H]2[C@@H]2CC(=O)N21", "note": "(some centres unmarked)", "hERG current change (%, negative = inhibition) at 10uM": 14},
      {"compound": "COc1ccccc1-n1cnc2cc(NCc3ccccn3)ccc21", "hERG current change (%, negative = inhibition) at 10uM": -17.5},
      {"compound": "CCOC(=O)N1CCC(N2CC34C=CC(O3)C(C(=O)Nc3ccc(C)cc3)C4C2=O)CC1", "note": "(centres unmarked)", "hERG current change (%, negative = inhibition) at 10uM": -0.268},
      {"compound": "CCSc1nnc(-c2ccccc2N=Cc2c(C)[nH]n(-c3ccccc3)c2=O)c(=O)[nH]1", "hERG current change (%, negative = inhibition) at 10uM": -17.6},
      {"compound": "O=C(NCc1ccco1)c1cc(-c2cccc(Cl)c2)on1", "hERG current change (%, negative = inhibition) at 10uM": -3.62},
      {"compound": "C=CCn1c2ccccc2c(=O)c2cc(C#Cc3cc(OC)cc(OC)c3)ccc21", "hERG current change (%, negative = inhibition) at 10uM": 10.4},
      {"compound": "Cc1cc(N/N=C/c2ccco2)c2ccccc2n1", "hERG current change (%, negative = inhibition) at 10uM": 16.6},
      {"compound": "CC1CCN(C(=O)C2CCN(c3nnc(-n4cccc4)s3)CC2)CC1", "hERG current change (%, negative = inhibition) at 10uM": -12.1},
      {"compound": "Cc1cccc(OCC(=O)NNC(=O)c2cc3ccccc3oc2=O)c1", "hERG current change (%, negative = inhibition) at 10uM": -9.32},
      {"compound": "COc1ccccc1Oc1ccccc1[N+](=O)[O-]", "hERG current change (%, negative = inhibition) at 10uM": 5.95},
      {"compound": "O=C(NCc1ccccn1)C1CCN(Cc2cccc(OCc3ccccc3)c2)CC1.O=C(O)C(=O)O", "hERG current change (%, negative = inhibition) at 10uM": -35.7},
      {"compound": "CCn1c(=O)cc(SCC(=O)Nc2ccc(OC)c(OC)c2)c2ccccc21", "hERG current change (%, negative = inhibition) at 10uM": -4.7},
      {"compound": "O=C(CN1CCOCC1)OCCCC1CCCCC1", "hERG current change (%, negative = inhibition) at 10uM": 6.58},
      {"compound": "O=C1C=C2C=C[C@H]3C[C@]2(O1)[C@@H]1CCCCN13", "hERG current change (%, negative = inhibition) at 10uM": 6.92},
      {"compound": "Nc1nnc(SCC(=O)NNC(=O)c2ccc(F)cc2)s1", "hERG current change (%, negative = inhibition) at 10uM": -2.71},
      {"compound": "CCCCNC(=O)CCn1nc(-c2ccccc2)ccc1=O", "hERG current change (%, negative = inhibition) at 10uM": -40},
      {"compound": "Cc1ccc(C)c(CN2CCSCC2)c1", "hERG current change (%, negative = inhibition) at 10uM": 17.3},
      {"compound": "Cc1nc(C)c(C(=O)OCC(=O)Nc2ccccc2)s1", "hERG current change (%, negative = inhibition) at 10uM": -5.7},
      {"compound": "COc1ccc(-c2nnc(SCC(=O)OC3CCCCC3)o2)cc1OC", "hERG current change (%, negative = inhibition) at 10uM": 0.881},
      {"compound": "Cc1cccc(NC(=O)C[n+]2cccc(C)c2)c1.[Cl-]", "hERG current change (%, negative = inhibition) at 10uM": -3.51},
      {"compound": "CC(Sc1ccccc1)C(=O)N1CCN(S(=O)(=O)c2ccccc2F)CC1", "note": "(centres unmarked)", "hERG current change (%, negative = inhibition) at 10uM": 0.493},
      {"compound": "Cc1ccc(S(=O)(=O)N2CCN(S(=O)(=O)N(C)C)CC2)cc1", "hERG current change (%, negative = inhibition) at 10uM": 5.52},
      {"compound": "CC(=O)c1ccc(NC(=O)CCOc2cc(C)ccc2C)cc1", "hERG current change (%, negative = inhibition) at 10uM": -8.08},
      {"compound": "CCOc1ccc(CCNC(=O)c2nccnc2C(=O)O)cc1OCC", "hERG current change (%, negative = inhibition) at 10uM": 20.7}
    ]}
  ]
}
